This is an account of results in patent publication US10143748B2, “B-cell reduction using CD37-specific and CD20-specific binding molecules” (Emergent Product Development Seattle, LLC, priority 2005, dated 2018).

This assay concerns the target T1, CD37 on Ramos cells (Homo sapiens, UniProt P11049).
T1 construct: Ramos cells expressing the CD20 and CD37 target antigens; endogenous in cells; host or cells: Ramos B-cell lymphoma line
T1 sequence (P11049 1-281): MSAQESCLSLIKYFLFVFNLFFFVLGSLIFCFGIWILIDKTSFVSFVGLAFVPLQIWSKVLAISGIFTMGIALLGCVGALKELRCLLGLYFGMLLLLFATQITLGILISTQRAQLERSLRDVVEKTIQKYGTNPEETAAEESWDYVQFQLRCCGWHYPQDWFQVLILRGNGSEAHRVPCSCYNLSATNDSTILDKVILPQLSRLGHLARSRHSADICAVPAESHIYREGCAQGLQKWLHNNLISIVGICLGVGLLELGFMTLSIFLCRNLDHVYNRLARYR
In words: binding of humanized TRU-016 constructs (COS-7 conditioned media) to Ramos. The settings on record: 3-day COS-7 conditioned media. Here is the method:
To make humanized TRU-016 constructs of the invention, the mouse framework regions of TRU-016 were aligned to human VH1 and VH5 framework residues for the heavy chain and VK1 and VK3 for the light chain. Best matches were analyzed for framework compatibility with the CDRs of the mouse variable regions. Although there were several equally compatible combinations to chose from, we had previous success using the VK3 (C01668), VH5-51(Z12373) combination, so the humanized anti-CD37 SMIPs were designed using these human frameworks joined by a 15aa Gly4Ser ((g4s)3) scFv linker. The VK3 construct was constructed with JK1 as a preferred FR4 match and the VH5 was constructed with JH2 coding for FR4, as with previously-described constructs. SMIPs were constructed de novo using overlapping oligonucleotide PCR. Full-length products were cloned into the SMIP expression vector in frame with the human IgG1 hinge, CH2, and CH3. These clones were sequence verified, transfected into COS-7 cells and 3-day conditioned media tested for binding to the 8-cell lymphoma line, Ramos. In order to increase humanization, changes were incorporated into CDR1 of the light chain at positions L25, L27 and L28 and were well tolerated, showing equal binding activity with the original humanized molecule 019001. Further DNA constructs were made in a similar fashion to alter the CDR3 of the VH region by incorporating germline amino acids, H100-H102, encoded by various human JH regions. Constructs were examined for expression level and degree of binding to CD37 on Ramos cells.

B1: 019001: humanized TRU-016 construct; Vk3: VH5-51; AA SEQ ID NO: 6 (protein)
chain: MEAPAQLLFLLLLWLPDTTGEIVLTQSPATLSLSPGERATLSCRTSENVYSYLAWYQQKPGQAPRLLIYFAKTLAEGIPARFSGSGSGTDFTLTISSLEPEDFAVYYCQHHSDNPWTFGQGTKVEIKGGGGSGGGGSGGGGTGEVQLVQSGAEVKKPGESLKISCKGSGYSFTGYNMNWVRQMPGKGLEWMGNIDPYYGGTTYNRKFKGQVTISADKSISTAYLQWSSLKASDTAMYYCARSVGPMDYWGRGTLVTVSSDQ[human IgG1 Fc with changes not shown]
modifications: Humanized TRU-016
As to B1, the “binding to CD37 on Ramos B cells” value was “high CD37-specific binding”.

B2: 019041: humanized TRU-016 construct; 019006 - CDR-H3 JH4; AA SEQ ID NO: 48 (protein)
chain: MEAPAQLLFLLLLWLPDTTGEIVLTQSPATLSLSPGERATLSCRASENVYSYLAWYQQKPGQAPRLLIYFAKTLAEGIPARFSGSGSGTDFTLTISSLEPEDFAVYYCQHHSDNPWTFGQGTKVEIKGGGGSGGGGSGGGGTGEVQLVQSGAEVKKPGESLKISCKGSGYSFTGYNMNWVRQMPGKGLEWMGNIDPYYGGTTYNRKFKGQVTISADKSISTAYLQWSSLKASDTAMYYCARSVGPFDYWGQGTLVTVSSDQ[human IgG1 Fc with changes not shown]
modifications: Humanized TRU-016
B2: the “binding to CD37 on Ramos B cells” value is “high CD37-specific binding”.

B3: 019044: humanized TRU-016 construct; 019006 - CDR-H3 JH5a; AA SEQ ID NO: 52 (protein)
chain: MEAPAQLLFLLLLWLPDTTGEIVLTQSPATLSLSPGERATLSCRASENVYSYLAWYQQKPGQAPRLLIYFAKTLAEGIPARFSGSGSGTDFTLTISSLEPEDFAVYYCQHHSDNPWTFGQGTKVEIKGGGGSGGGGSGGGGTGEVQLVQSGAEVKKPGESLKISCKGSGYSFTGYNMNWVRQMPGKGLEWMGNIDPYYGGTTYNRKFKGQVTISADKSISTAYLQWSSLKASDTAMYYCARSVGPFDSWGQGTLVTVSSDQ[human IgG1 Fc with changes not shown]
modifications: Humanized TRU-016
For the molecule B3, the “binding to CD37 on Ramos B cells” value was “high CD37-specific binding”.
